Square brackets hold non-standard residues; d marks the D form. Ends that are not written are not given here. Ahx = NCCCCCC(=O)O
Legend:
[1] = tested on: region surrounding the AUG start codon of the human c-myc gene; test: Cell-free translation assay (rabbit reticulocyte lysate), c-myc:fLUC; settings: cell-free RRL translation, FIG. 28
Description: This placed the c-myc coding sequences in frame with the amino acid coding sequences of the fLUC gene (c-myc:fLUC). A PMO targeting this region of c-myc, designated AVI-4126, is listed as SEQ ID NO: 5.
A plasmid construct with a 30 base pair region surrounding the ATG start codon of the human c-myc gene was placed in frame with the amino acid coding sequences of the fLUC gene (c-myc:fLUC). A PMO targeting this region of c-myc, AVI-4126, is listed as SEQ ID NO: 5.

[2] = tested on: sequence of murine hepatitis virus (MHV) that surrounds the start codon of the lab gene; test: Cell-free translation assay (rabbit reticulocyte lysate), MHV sequence fused to fLUC; type: biochemical; settings: all the above described cases, including the MHV target
Description: A similar construct using a portion of the murine hepatitis virus (MHV) genome was constructed in the same vector (pCNlucr) by inserting nucleotides 188 to 230 of MHV (Genbank accession number AF029248) into the NheI and SalI sites of pCNlucr. This fragment of MHV contains nucleotides −22 to +21 relative to the “A” of the AUG of the MHV Orf 1a gene and generates a fusion protein with the luciferase reporter gene. The PMO that targets this region is SEQ ID NO: 9.

| Substance | antisense effect of the conjugated c-myc PMO compared to unconjugated PMO [1] | enhancement of antisense effectiveness compared to unconjugated PMO [2] |
| --- | --- | --- |
| RAhxRRAhxRRAhxRRAhxR (R[Ahx]RR[Ahx]RR[Ahx]RR[Ahx]R) [(RAhxR)4] | enhanced antisense effect | – |
| RRRRRRRRRFF [R9F2, transport peptide; results under this label are for its PMO conjugates] | – | ≤ 500 fold |

From patent US10905782B2, “Compositions for enhancing transport of molecules into cells” (priority 2003, dated 2021)
